# According to PubChem BioAssay AID624417 (National Center for Advancing Translational Sciences (NCATS), 2012):
# The campaign covered roughly 410,000 compounds. About 6,400 (1.6%) were called active. The shares of active, inactive and inconclusive entries below differ from those in the screen. Calls come from the whole dose curve; as a rule, active = well fitted inhibition curve with a large enough effect; inconclusive = small, poorly fitted or top-dose-only effect; inactive = no such curve, though single readings can be large or run the other way. No potency is given beside an inconclusive call; the fits are too rough.
# Target: Glucagon-like peptide 1 receptor (Homo sapiens) (UniProt P43220)
# UniProt P43220, sequence (P43220 whole entry, looked up): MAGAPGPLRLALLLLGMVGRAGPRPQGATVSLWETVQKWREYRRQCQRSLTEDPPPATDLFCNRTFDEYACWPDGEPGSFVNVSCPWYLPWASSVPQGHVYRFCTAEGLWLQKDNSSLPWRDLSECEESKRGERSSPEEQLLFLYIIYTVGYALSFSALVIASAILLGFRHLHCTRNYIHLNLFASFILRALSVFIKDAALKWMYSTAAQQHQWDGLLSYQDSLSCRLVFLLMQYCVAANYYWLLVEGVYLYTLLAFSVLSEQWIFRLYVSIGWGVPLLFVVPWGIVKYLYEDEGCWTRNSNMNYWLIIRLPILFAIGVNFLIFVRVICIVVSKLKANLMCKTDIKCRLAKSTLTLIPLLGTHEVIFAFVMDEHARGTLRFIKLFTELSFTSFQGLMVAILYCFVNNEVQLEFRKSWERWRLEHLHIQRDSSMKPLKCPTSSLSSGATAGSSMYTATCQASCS
# Experiment: qHTS of GLP-1 Receptor Inverse Agonists (Inhibition Mode); note: nearly all actives have a fitted effect of over 55% in size
# Conditions: HEK293 GLP-1R CRE-luciferase, luminescence, 24 h, GLP-1R form is constitutively active; activity change, negative = inhibition: at 38.3 µM (top of the series) unless noted
# Method in brief: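 GLP-1R inverse agonism mode: basal reporter luminescence in engineered HEK293 cells measured after one day of compound exposure at 37 deg C, with a 12 min room-temperature detection step.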
# % is set by controls: 0 for no effect and ±100 for the full control effect; potency is the fitted concentration of half-maximal effect; tags give direction and shape of the fitted curve.
Compound,Potency,"activity change, negative = inhibition"
O=NN(CCc1ccncc1)c1ccc(OCc2ccccc2)cc1,"inconclusive [inhibitor, single point]",
CCOC(=O)C1(Cc2cccc(OC)c2)CCN(Cc2ccc(OC)c(O)c2)CC1,"inconclusive [inhibitor, partial curve, poor fit]",
CC(C)COC(=O)C(N)C(C(=O)OCC(C)C)c1ccccc1 (stereo not drawn),"inconclusive [inhibitor, partial curve, poor fit]",
Cc1ccc(S(=O)(=O)NC(CC(=O)O)c2ccccc2)c(C)c1 (stereo not drawn),"inconclusive [inhibitor, full curve, poor fit]",
Oc1[nH]c2ccccc2c1N=Nc1ccccn1,,inactive: 1.84%
c1ccc2c(Oc3ccc4c(c3)OCO4)nncc2c1,"inconclusive [inhibitor, single point]",
Cc1ccccc1Cn1c(CCCNC(=O)C2CCCCC2)nc2ccccc21,"inconclusive [inhibitor, single point]",
COc1cc(Cl)c(C)cc1NC(=O)COc1ccccc1[N+](=O)[O-],"inconclusive [inhibitor, single point]",
CCn1c2ccccc2c2cc(NC(=O)CC(C)=O)ccc21,"inconclusive [inhibitor, partial curve, poor fit]",
Cc1ccc(-n2cnc3cc(NCc4cccs4)ccc32)cc1,"inconclusive [inhibitor, single point]",
CNc1nc(SCc2ccccc2Cl)nc2c1CCCC2,active: 10 µM,
O=C(NC1=CC(=O)c2ccccc2C1=O)c1ccccc1,"inconclusive [inhibitor, full curve, poor fit]",
COc1ccc(S(=O)(=O)N(Cc2nc(-c3cccc(C)c3)no2)C2CCCCC2)cc1,"inconclusive [inhibitor, partial curve]",
Cc1ccccc1Cn1c(SCc2ccc(C(=O)NCc3cccs3)cc2)nc2ccncc21,"inconclusive [inhibitor, single point]",
CCO[C@H]1OC(C(=O)NCc2ccccc2)=C[C@@H](C(C)(C)C)[C@@H]1CCCO,"inconclusive [inhibitor, single point]",
CC1CCN(S(=O)(=O)c2ccc(S(=O)(=O)N3CCCC3)cc2)CC1,,inactive: 2.81%
CCOc1ccc(C(C)NC(=S)NCc2ccc(F)cc2)cc1 (stereo not drawn),"inconclusive [inhibitor, partial curve, poor fit]",
COc1ccc(Br)cc1/C=N/N1CCN(Cc2ccccc2)CC1,"inconclusive [inhibitor, partial curve, poor fit]",
C=C[C@@H]1c2cc(C)ccc2N(S(=O)(=O)c2ccc(C)cc2)[C@H](c2ccccc2)C1(C#N)C#N,,inactive: 1.49%
OC(CC#CCN1CCCC1)(c1ccccc1)c1ccccc1,"inconclusive [inhibitor, partial curve, poor fit]",
COc1ccc(-c2nc3c(Cl)cc(C(F)(F)F)cn3c2Cc2cccc(Cl)c2)cc1OC,"inconclusive [inhibitor, single point]",

Compound,Potency,"activity change, negative = inhibition"
OCCCNc1c2ccccc2nc2ccccc12,"inconclusive [inhibitor, partial curve, poor fit]",
C[C@@H]1CN([C@@H](C)CO)C(=O)c2cc(NS(C)(=O)=O)ccc2O[C@H]1CN(C)Cc1ccc(Oc2ccccc2)cc1,"inconclusive [inhibitor, single point]",
O=C(CCn1c(=O)c2cccn2c2ccc(F)cc21)NCc1ccccc1F,,inactive: -5.06%
CCNC(=O)CC1C(=O)N(c2ccccc2)C(=O)N1Cc1ccc(F)cc1 (stereo not drawn),,inactive: 10.1%
CC(C)[C@H](NC(=O)N1CCn2c1nc1ccccc12)C(=O)NCCc1ccccc1,"inconclusive [inhibitor, single point]",
O=C(NC(c1ccccc1)c1cnccn1)C1CCN(CCOc2ccc(Cl)cc2Cl)CC1 (stereo not drawn),"inconclusive [inhibitor, single point]",
CN(C(=O)c1cc(S(=O)(=O)N2CCc3ccccc32)cn1C)C1CCCCC1,,inactive: -27.7%
CC1=Nc2cc(C(=O)NCc3ccc(C)cc3)ccc2Sc2ccc(Cl)cc21,"inconclusive [inhibitor, single point]",
Cc1cc(C)cc(-n2c(C)cc(/C=N/NC(=O)c3cccc([N+](=O)[O-])c3C)c2C)c1,"inconclusive [inhibitor, partial curve, poor fit]",
CCOC(=O)c1cn(Cc2ccccc2)c(C(=O)OC(C)(C)C)c1O,"inconclusive [inhibitor, partial curve, poor fit]",
Cc1csc(NC(=O)CSc2ncnc3c2cnn3-c2ccccc2Cl)n1,"inconclusive [inhibitor, partial curve, poor fit]",
Cc1ccc2nc(C3CCCCC3)c(Cc3cccc(F)c3)n2c1,"inconclusive [inhibitor, single point]",
COc1ccc(Cl)cc1NC(=O)C(C)N1CCc2ccccc21 (stereo not drawn),"inconclusive [inhibitor, partial curve, poor fit]",
CC1CC(C(F)(F)F)n2nc(C(=O)O)cc2N1 (stereo not drawn),,inactive: 1.62%
CN(Nc1cccc(Cl)c1)c1cccc(Cl)c1,"inconclusive [inhibitor, single point]",
CC1(C)CC2CC(C)(CN2C(=O)COC(=O)c2ccc(Cl)cc2N)C1 (stereo not drawn),"inconclusive [inhibitor, partial curve, poor fit]",
Cc1cc(C)n(CC(=O)N2c3ccccc3Sc3ccc(C(F)(F)F)cc32)n1,"inconclusive [inhibitor, partial curve, poor fit]",
CCN(CC)CCC(c1cc(OC)c(OC)c(OC)c1)c1c(OC)cc(OC)c2c(-c3ccccc3)cc(=O)oc12 (stereo not drawn),"inconclusive [inhibitor, single point]",
Cc1cc(NC(=O)C(C)SCC(=O)Nc2cc(Cl)ccc2N2CCN(C)CC2)no1 (stereo not drawn),"inconclusive [inhibitor, single point]",
Cn1cc(CNCc2ccccc2OCC(O)CN2CCc3ccccc3C2)cn1 (stereo not drawn),active: 8.91 µM,
CN(CCNC(=O)CN1CCN(Cc2ccccc2Cl)C1=O)Cc1ccccc1,"inconclusive [inhibitor, partial curve, poor fit]",

Compound,Potency,"activity change, negative = inhibition"
CCOc1ccccc1NC(=O)Cn1c(=O)oc2cc(S(=O)(=O)NCc3ccccc3)ccc21,,inactive: -1.62%
Cc1ccccc1CSc1nnc(NC(=O)C2COc3ccccc3O2)s1 (stereo not drawn),"inconclusive [inhibitor, single point]",
CN(C)c1ccc(CNC(=O)C2CCCN(S(=O)(=O)c3ccc4c(ccn4C)c3)C2)cc1 (stereo not drawn),"inconclusive [inhibitor, partial curve, poor fit]",
COc1ccc(C(=O)Nc2cc(-c3ccccc3)nn2-c2ccccc2)cc1,"inconclusive [inhibitor, single point]",
CCOC(=O)C1=C(N)c2ccccc2CC1C1CCCC1 (stereo not drawn),"inconclusive [inhibitor, partial curve, poor fit]",
COc1ccc(CCNCC(C)c2ccccc2)cc1 (stereo not drawn),,inconclusive: -32.4% [inhibitor]
CN1CC(=O)N/C1=N\C(=O)Nc1ccc(O)cc1,,inactive: 5.7%
Cc1cccc(Nc2nc3ccccc3s2)c1C,"inconclusive [inhibitor, single point]",
O=C(NCCN1CCC(n2c(=O)[nH]c3ccccc32)CC1)c1ccc(Cl)cc1,"inconclusive [inhibitor, single point]",
COc1cc(CN2CCc3ccc(NC(=O)CCc4ccccc4OC)cc3C2)ccc1O,"inconclusive [inhibitor, single point]",
COc1ccc(OC)c(NC(=O)NNC(=O)COc2ccc([N+](=O)[O-])cc2)c1,"inconclusive [inhibitor, single point]",
Cn1c2ccccc2c(=O)c2c(=O)n(-c3ccc(F)cc3)c(-c3cccs3)nc21,,inactive: 16.1%
O=C(C1CCC(CNS(=O)(=O)c2ccc(Br)s2)CC1)N1CCN(c2ccccc2Cl)CC1 (stereo not drawn),"inconclusive [inhibitor, partial curve, poor fit]",
O=C(NNS(=O)(=O)c1ccccc1)c1ccc(O)cc1,,inactive: -5.22%
O=C(C[C@@H]1CC[C@H](NC(=O)c2ccc3c(c2)OCO3)[C@@H](CO)O1)NCc1ccc(F)cc1,,inactive: 18.8%
O=C(COC(=O)C1CCN(c2ccc(C(F)(F)F)cn2)CC1)Nc1ccc(Cl)cn1,,inactive: 1.38%
O=C(CCC(=O)Nc1ccc(F)cc1)N/N=C/c1cc([N+](=O)[O-])ccc1O,"inconclusive [inhibitor, partial curve, poor fit]",
Cc1ncc(CO)c2c1Oc1nc(-c3ccccc3)nc(SCC(=O)N3CCCCC3)c1C2,"inconclusive [inhibitor, partial curve, poor fit]",
O=[N+]([O-])c1cccnc1NCCNc1ncc(C(F)(F)F)cc1Cl,"inconclusive [inhibitor, single point]",
CC(NC(=S)N1CCN(c2ccccc2)CC1)c1ccccc1 (stereo not drawn),"inconclusive [inhibitor, partial curve, poor fit]",
COC(=O)C(=Cc1ccc(OCc2ccc([N+](=O)[O-])cc2)c(OC)c1)C(=O)OC,"inconclusive [inhibitor, partial curve, poor fit]",
